In all, about 310,000 compounds went through this assay and about 14,000 (4.5%) showed an effect of 50% or more. Effects have a minus sign here. Some of the results follow.
Target: human ether-à-go-go-related gene (hERG) potassium channel (human, UniProt Q12809)
Test: primary screen, population patch clamp on CHO cells stably expressing hERG
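Note: peak tail current of the secondary pulse compared with the same well before compound.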

Chain of human ether-à-go-go-related gene (hERG) potassium channel (Q12809 whole entry, looked up): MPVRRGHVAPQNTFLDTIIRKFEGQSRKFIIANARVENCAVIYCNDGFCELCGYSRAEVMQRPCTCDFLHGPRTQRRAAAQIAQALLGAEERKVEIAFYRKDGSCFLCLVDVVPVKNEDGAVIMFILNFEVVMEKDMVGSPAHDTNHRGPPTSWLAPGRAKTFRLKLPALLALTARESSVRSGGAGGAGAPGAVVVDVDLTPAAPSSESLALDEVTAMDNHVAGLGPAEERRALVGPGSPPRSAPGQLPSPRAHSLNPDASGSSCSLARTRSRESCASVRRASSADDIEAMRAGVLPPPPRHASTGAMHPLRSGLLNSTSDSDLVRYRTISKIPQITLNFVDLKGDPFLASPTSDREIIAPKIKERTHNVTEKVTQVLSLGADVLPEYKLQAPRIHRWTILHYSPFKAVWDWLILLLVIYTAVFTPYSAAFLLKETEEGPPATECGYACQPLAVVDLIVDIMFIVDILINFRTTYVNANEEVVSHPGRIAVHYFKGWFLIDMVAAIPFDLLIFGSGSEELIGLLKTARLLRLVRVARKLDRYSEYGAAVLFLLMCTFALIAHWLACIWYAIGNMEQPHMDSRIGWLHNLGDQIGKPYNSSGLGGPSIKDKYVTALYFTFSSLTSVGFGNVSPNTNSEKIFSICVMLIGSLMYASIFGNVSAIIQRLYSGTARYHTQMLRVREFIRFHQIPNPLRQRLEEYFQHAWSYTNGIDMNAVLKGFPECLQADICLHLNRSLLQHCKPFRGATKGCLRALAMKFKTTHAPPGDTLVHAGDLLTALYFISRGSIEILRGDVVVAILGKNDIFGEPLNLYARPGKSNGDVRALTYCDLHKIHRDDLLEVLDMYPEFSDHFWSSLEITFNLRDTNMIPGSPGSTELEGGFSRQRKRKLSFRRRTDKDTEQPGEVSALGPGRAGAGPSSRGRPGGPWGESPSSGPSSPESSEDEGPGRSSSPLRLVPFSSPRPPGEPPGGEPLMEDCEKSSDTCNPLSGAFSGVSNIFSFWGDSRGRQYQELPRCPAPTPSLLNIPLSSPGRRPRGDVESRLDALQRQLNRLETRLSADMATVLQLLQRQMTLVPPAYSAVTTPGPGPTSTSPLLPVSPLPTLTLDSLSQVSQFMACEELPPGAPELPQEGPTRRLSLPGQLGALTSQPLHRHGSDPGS

Going from `CN1CCN(C(=O)CSc2nc(-c3ccncc3)ccc2C#N)CC1` to `Cc1ccnc(SCC(=O)N2CCc3ccccc32)n1`, the “hERG current change (%, negative = inhibition) at 10uM” value rises from -8.11% to 7.77%.

Compared with `O=C(CSc1ncccn1)NC(=O)NCc1ccccc1`, `O=C(NCCc1ccccc1)C1CCCN(S(=O)(=O)c2cccnc2)C1` (centres unmarked) is lower in “hERG current change (%, negative = inhibition) at 10uM” value: 18.7% for the first, 0.403% for the second.

First: Cc1cccc(NC(=O)c2ccc3c(c2)CCN3S(C)(=O)=O)c1C
Second: Cc1ccccc1CS(=O)(=O)CCC(=O)NCCN1CCN(c2cccc(Cl)c2)CC1
The “hERG current change (%, negative = inhibition) at 10uM” value of the first is higher: 2.45% for the first, -42.5% for the second.

Going from `CCc1nnc(NC(=O)CSc2nnc(-c3cc4ccccc4cc3O)n2CCOC)s1` to `CCn1c(SCC(=O)Nc2nncs2)nnc1C(C)NC(=O)c1ccccc1Br` (centres unmarked), the “hERG current change (%, negative = inhibition) at 10uM” value rises from -25.6% to 19%.

Compared with `Cc1cccc(Cc2c(C)nc3c(C(=O)NCc4ccco4)cnn3c2C)c1`, `CCN(CC)c1ccc(/C=C(\C#N)C(=O)NCc2ccco2)cc1` is higher in “hERG current change (%, negative = inhibition) at 10uM” value: -30.8% for the first, 2.25% for the second.

First: CCOC(=O)N1CCN(Cc2cn[nH]c2-c2ccc(-c3ccccc3)cc2)CC1
Second: COc1cc2c(cc1OC)CN(C(=O)c1ccc(-c3ccccc3)cc1)CC2
The “hERG current change (%, negative = inhibition) at 10uM” value of the first is lower: -54.8% for the first, -0.999% for the second.

First: O=C(CNC(=O)c1ccccc1F)Nc1ccccc1C(F)(F)F
Second: COc1ccccc1CNC(=S)NCc1ccc(F)cc1
The “hERG current change (%, negative = inhibition) at 10uM” value of the first is higher: 13.8% for the first, 2.76% for the second.

First: COC(=O)C1=C(C)N(C)C(=O)NC1c1c(O)ccc2ccccc12 (centres unmarked)
Second: CCOc1cc(C2Nc3ccccc3C(=O)N2c2ccccc2)ccc1O (centres unmarked)
The “hERG current change (%, negative = inhibition) at 10uM” value of the first is lower: 0.915% for the first, 4.38% for the second.

Going from `Cc1noc(C)c1S(=O)(=O)N1CCC(C(=O)NC2CCCc3ccccc32)CC1` (centres unmarked) to `O=C(Nc1cc(=O)c2ccccc2o1)N1CCCCC1`, the “hERG current change (%, negative = inhibition) at 10uM” value falls from 7.87% to 2.06%.

First: O=C(NCCCN1CCCC1=O)c1ccc(CNS(=O)(=O)c2ccc(F)cc2)cc1
Second: CN(CC(=O)Nc1ccc(F)cc1)C(=O)CN1C(=O)NC2(CCCc3ccccc32)C1=O (centres unmarked)
The “hERG current change (%, negative = inhibition) at 10uM” value of the first is lower: -3.18% for the first, 10.7% for the second.

Going from `Cc1cc(NCCCN2CCOCC2)n2c(nc3ccccc32)c1C#N` to `O=C(CCC(=O)NNc1nc2ccccc2c2nc(-c3ccccc3)nn12)NCCCN1CCOCC1`, the “hERG current change (%, negative = inhibition) at 10uM” value rises from -23.3% to 7.93%.

First: O=C(NCCCn1ccnc1)c1cccc(Br)c1
Second: COc1cccc(C(=O)NCCS(=O)(=O)NCc2cccnc2)c1
The “hERG current change (%, negative = inhibition) at 10uM” value of the first is lower: -10.3% for the first, 8.66% for the second.

Going from `COP(=O)(OC)C(NC(=O)Nc1ccccc1)c1ccccc1` (centres unmarked) to `O=C(CP(=O)(c1ccccc1)c1ccccc1)N1CCCCC1`, the “hERG current change (%, negative = inhibition) at 10uM” value rises from 0.454% to 1.57%.

First: Cc1ccc(Nc2nnc(SCn3nnc4ccccc4c3=O)s2)cc1
Second: Cc1ccc(CSc2sc(C(=O)c3ccccc3)c(N)c2C#N)cc1
The “hERG current change (%, negative = inhibition) at 10uM” value of the first is lower: 2.83% for the first, 6.41% for the second.

First: O=C(O)C1=C[C@@H](C2CC2)C[C@@H](OCCCCO)O1
Second: COc1cccc(NC(=O)N2CCCC2C(=O)NCC(C)C)c1 (centres unmarked)
The “hERG current change (%, negative = inhibition) at 10uM” value of the first is lower: 10.9% for the first, 15.8% for the second.

Compared with `C=CCn1c(O)c(C(CC)=Nc2ccc(N(CC)CC)cc2)c(=O)[nH]c1=O`, `CCCCn1c(N)c(N(CCOC)C(=O)c2ccc(NC3CC3)c([N+](=O)[O-])c2)c(=O)[nH]c1=O` is lower in “hERG current change (%, negative = inhibition) at 10uM” value: 13.3% for the first, -3.27% for the second.

Going from `COc1ccc(OC)c(-c2nc3cc4ccccc4cc3nc2-c2ccccc2)c1` to `COc1ccc(C(=O)c2cc3cccc(OC)c3o2)cc1`, the “hERG current change (%, negative = inhibition) at 10uM” value falls from 11.4% to -13.7%.

Going from `CCOc1ccccc1NC(=S)NC(=O)C1CCCCC1` to `O=C(CCN1CCOCC1)NNC(=S)NC(=O)c1ccccc1`, the “hERG current change (%, negative = inhibition) at 10uM” value rises from 14.6% to 19.5%.

Compared with `Cc1ccc(C(=O)NNC(=O)CNc2cccc(Cl)c2)cc1`, `COc1ccc(C(=O)N/N=C/C(Br)=C/c2ccccc2)cc1` is lower in “hERG current change (%, negative = inhibition) at 10uM” value: 19% for the first, 5.88% for the second.

First: Cc1ccc(OCCCC(=O)Nc2ccc(S(=O)(=O)Nc3ccccn3)cc2)cc1
Second: Cc1ccc([N+](=O)[O-])cc1S(=O)(=O)Nc1ccccn1
The “hERG current change (%, negative = inhibition) at 10uM” value of the first is lower: 6.11% for the first, 9.5% for the second.

First: CN1CCc2nc3ccc(F)cc3c(C(N)=O)c2C1.Cl
Second: COC(=O)c1ccc(N2CCN(C)CC2)c([N+](=O)[O-])c1
The “hERG current change (%, negative = inhibition) at 10uM” value of the first is higher: -4.4% for the first, -63.4% for the second.

First: CCn1cc(C(=O)NCCN(C)C)c(=O)c2cc(F)c(N3CCN(C)CC3)cc21.Cl
Second: CCN1CCN(c2cc(N3CCCC3)c(F)cc2[N+](=O)[O-])CC1
The “hERG current change (%, negative = inhibition) at 10uM” value of the first is higher: 4.78% for the first, -27.9% for the second.

First: CCOC(=O)c1c(C)[nH]c(C(=O)OCC(=O)N2CCCC2=O)c1C
Second: CCOC(=O)c1cc2c(ccc3nc(C)c(C)c32)[nH]c1C
The “hERG current change (%, negative = inhibition) at 10uM” value of the first is higher: 6.2% for the first, -23.3% for the second.

Going from `COc1cccc(N2CCN(Cc3nnnn3C3CCCCC3)CC2)c1` to `O=S(=O)(c1ccc(OC(F)(F)F)cc1)N1CCCC(N2CCOCC2)C1` (centres unmarked), the “hERG current change (%, negative = inhibition) at 10uM” value falls from 16.2% to -40.1%.

First: Cn1c(SCc2cc(=O)n3cc(Br)ccc3n2)nnc1C1COc2ccccc2O1 (centres unmarked)
Second: Cn1c(=O)c2c(-c3ccc(OC(F)F)cc3)cc(-c3ccccc3)nc2n(C)c1=O
The “hERG current change (%, negative = inhibition) at 10uM” value of the first is lower: -72% for the first, 2.37% for the second.

Compared with `Cc1ccc([C@@H]2[C@@H]3C(=O)N(c4ccccc4)C(=O)[C@@H]3[C@]3(C)C(=O)N(CC4CC4)CC(=O)N23)o1`, `CCC1=C(OC(=O)N(CC)CC)N2C(=O)OC(=NCc3ccccc3)[C@]2(C)[C@H]2C1=CC[C@H]1C(=O)NC(=O)[C@H]12` is lower in “hERG current change (%, negative = inhibition) at 10uM” value: -4.44% for the first, -6.14% for the second.

Going from `O=C(O)CCNS(=O)(=O)c1ccc2c(c1)OCCCO2` to `Cn1c(=O)oc2cc(S(=O)(=O)NCC3CCCO3)ccc21` (centres unmarked), the “hERG current change (%, negative = inhibition) at 10uM” value falls from 18.5% to -1.26%.

Compared with `Cc1cc(C)c(NC(=O)CCCOC(=O)C2=COCCO2)c(C)c1`, `COc1ccc(NC(=O)CSCC(=O)N(C)Cc2ccc3c(c2)OCCO3)cc1` is lower in “hERG current change (%, negative = inhibition) at 10uM” value: 16.1% for the first, 0.31% for the second.

Compared with `CN(c1ccccc1)c1ccc(/C=C/[N+](=O)[O-])cc1`, `COc1ccc(OCCCC(=O)OC(C)C(=O)Nc2ccccc2[N+](=O)[O-])cc1` (centres unmarked) is lower in “hERG current change (%, negative = inhibition) at 10uM” value: 15.5% for the first, -0.636% for the second.

Compared with `CN1C(=S)SC(/[N+]([O-])=C\c2cccs2)C1(C)C` (centres unmarked), `Cc1ccc(/C=C2/SC(=S)N(C3CCCCC3)C2=O)o1` is lower in “hERG current change (%, negative = inhibition) at 10uM” value: 3.73% for the first, 0.16% for the second.

Going from `Cc1ccn2c(NC(=O)c3ccccc3)c(-c3cccs3)nc2c1` to `Oc1ccc(O)c(/C(=N/Nc2ccccc2)c2ccccc2)c1`, the “hERG current change (%, negative = inhibition) at 10uM” value falls from 16.5% to 11%.

Going from `Cc1cccc(OCCSc2cc(C)nc(N)n2)c1` to `COc1ccc(N2CC(O)=C(c3nc(C)cs3)C2=N)cc1`, the “hERG current change (%, negative = inhibition) at 10uM” value rises from -7.77% to 3.07%.

Compared with `CC1CCCCN1CCNC(=O)c1ccc2c(c1)N(Cc1ccccc1)C(=O)c1ccccc1S2(=O)=O` (centres unmarked), `O=C(NCc1ccco1)C1CN(S(=O)(=O)c2ccccc2)CCN1S(=O)(=O)c1ccccc1` (centres unmarked) is lower in “hERG current change (%, negative = inhibition) at 10uM” value: -20.8% for the first, -37.3% for the second.

Going from `COC(=O)c1cc(NC(=O)CN2CCN(C(C)=O)CC2)cc(C(=O)OC)c1` to `C=CCN1c2ccccc2[C@]23C[C@@H](C(=O)OC)N(C(C)=O)C2=NC(C(=O)OC)=C(C(=O)OC)[C@H]13`, the “hERG current change (%, negative = inhibition) at 10uM” value falls from 3.85% to -42.9%.

Compared with `CCn1cc(NC(=O)Nc2ccccc2C(=O)OC)c(C(N)=O)n1`, `CCc1nnc(NS(=O)(=O)c2ccc(NC(=O)OC)cc2)s1` is lower in “hERG current change (%, negative = inhibition) at 10uM” value: 10.1% for the first, 3.48% for the second.

First: CCCN1CCN(C(c2cc3cc4c(cc3[nH]c2=O)OCO4)c2nnnn2C(C)(C)C)CC1 (centres unmarked)
Second: COc1ccc2nc(N3C(=O)CC(Cc4cc(C)cc(C)c4)C3=O)sc2c1 (centres unmarked)
The “hERG current change (%, negative = inhibition) at 10uM” value of the first is lower: -12.8% for the first, 9.23% for the second.

First: COc1ccc(-n2c(Cn3nc(C(F)(F)F)cc3C)n[nH]c2=S)cc1
Second: C=CCSc1n[nH]c(-c2ccc(OC)cc2)n1
The “hERG current change (%, negative = inhibition) at 10uM” value of the first is higher: 21.3% for the first, 7.64% for the second.

Going from `COc1ccccc1N1CCN(C(=O)C(C)N(c2ccccc2)S(C)(=O)=O)CC1` (centres unmarked) to `CC(=O)Oc1cccc(N2C(=O)c3ccc(C(=O)O)cc3C2=O)c1`, the “hERG current change (%, negative = inhibition) at 10uM” value falls from 5.64% to -2.25%.

Compared with `Cc1cc(C(=O)Nc2nnc(C(F)(F)F)s2)no1`, `CN(C)/C=N/c1ncn(-c2ncc(C(F)(F)F)cc2Cl)n1` is lower in “hERG current change (%, negative = inhibition) at 10uM” value: 21.5% for the first, 17.5% for the second.

Going from `COc1ccc(/C=C2/C(=O)OCc3cc(OC)c(OC)cc32)c(OC)c1` to `COc1cc(C(=O)OC2CC3CCC2(C)C3(C)C)ccc1OC(C)=O` (centres unmarked), the “hERG current change (%, negative = inhibition) at 10uM” value rises from -27.8% to 10.8%.

Compared with `CS(=O)(=O)NCCNc1cc(Cl)ccc1[N+](=O)[O-]`, `Cc1nn(CC(=O)c2ccc(Cl)cc2Cl)c(C)[n+]1N.[Br-]` is higher in “hERG current change (%, negative = inhibition) at 10uM” value: 2.09% for the first, 11.4% for the second.

Going from `Cc1ccc(-n2c(N)c(C#N)c(-c3ccc(Cl)cc3)c(C#N)c2=O)cc1` to `Cn1c(=O)c2c(nc(N/N=C/c3cccnc3)n2Cc2ccccc2)n(C)c1=O`, the “hERG current change (%, negative = inhibition) at 10uM” value falls from 17.1% to -51.2%.

First: CCOC(=O)c1ccc2c(c1)nc(SC(C)C(=O)NCC1CCCO1)n2CC (centres unmarked)
Second: C[C@@H]1O[C@@H](O[C@@H]2C=C3CC[C@@H]4C(CC[C@]5(C)[C@@H](c6ccc(=O)oc6)CC[C@]45O)[C@@]3(C)CC2)[C@H](O)[C@H](O)[C@H]1O (some centres unmarked)
The “hERG current change (%, negative = inhibition) at 10uM” value of the first is lower: -18.9% for the first, 13.9% for the second.
